# Patent US20180008672A1, “ANTI-ACTIVIN A ANTIBODIES AND METHODS OF USE THEREOF FOR TREATING PULMONARY ARTERIAL HYPERTENSION” (Regeneron Pharmaceuticals, Inc., priority 2016, published 2018)
# B1: Isotype control antibody: isotype control antibody; called H4H6334P in Example 4, REGN1945 in the footnote of Table 7 (antibody, V domains shown)
# VH: EVQLVESGGGLVKPGGSLRLSCAVSGFTFSIDWMIWVRQAPGTGLEWVGRIKRKTDGGTTDYAAPVKGRFTISRDDSKNTLYLQMNSLKTEDTAIYYCATGGFERVGQGTLVTVSS
# VL: [in this place about 100 residues]LTFGGGTKVEIK
# Experiments:
# [1] = system: chronic hypoxia-induced pulmonary arterial hypertension mouse model; assay: 4 week chronic hypoxia-induced pulmonary arterial hypertension mouse model; format: in vivo, mouse (Taconic C57BL/6); conditions: normobaric hypoxia 4 weeks, 25 mg/kg SC 2x/week starting day 14; for Stroke Volume (Mean ± SEM), right ventricular: calculated from PA CSA and VTI; for Stroke Volume (Mean ± SEM), right ventricular / Right Ventricular cardiac output (Mean ± SEM): 25 mg/kg; for Right Ventricular cardiac output (Mean ± SEM): product of SV and heart rate
# Excerpt: To evaluate the effect of anti-Activin A antibodies in pulmonary arterial hypertension, a 4 week chronic hypoxia-induced pulmonary arterial hypertension mouse model was used.
# Eleven to fourteen week old Taconic C57BL/6 mice were used for the study. Mice were separated into treatment groups by weight such that starting body weights were similar among different groups. Cages were selected to either remain at ˜21% O2 (normobaric normoxia) or placed into 10% O2 (normobaric hypoxia) chamber (a modified 3′ Semi-Rigid Isolator unit, Charles River) that maintained low O2 levels with adjustment of N2 flow to a steady intake of room air.
# As outlined in Table 3, mice were subcutaneously administered 25 mg/kg of REGN2477, (H4H10446P2), 25 mg/kg of an isotype control antibody, or 10 μL/kg of saline starting on day 14.
# On the last day of each study, pulmonary artery size and right ventricular function and dimensions were assessed in each mouse using a high frequency ultrasound system (Vevo 2100, VisualSonics). For the assessment, mice were anesthetized (with 1.5% isoflurane at a rate of 1.0 cc/mL of medical grade air) and their temperature was monitored with a rectal temperature probe and held at approximately 37° C. with a heated platform (MouseMonitorS, Indus Instruments) and a warming lamp. Both brightness-mode (B-mode) and motion-mode (M-mode) imaging were used. B-mode imaging of the mouse heart in cross-section was used to determine pulmonary artery cross-sectional area (PA CSA) at the level of the pulmonary valve. […] was used to determine the pulsed wave velocity time integral (VTI), which is derived from the area under the curve of representative Doppler tracings of blood flow through the pulmonary artery. Right ventricular stroke volume (RV SV) was calculated from the product of PA CSA and VTI. Right ventricular cardiac output (RV CO) was calculated from the product of SV and heart rate (HR). M-mode imaging was used to determine right ventricular free wall (RVFW) thickness during diastole and systole. Animals were returned to their home cages before right ventricular pressure assessment.
# Right ventricular pressure was subsequently assessed for all treatment groups. Mice were anesthetized with isoflurane and were kept at approximately 37° C. using a heated platform (Heated Hard Pad 1, Braintree Scientific) and circulating heated water pump (T/Pump Classic, Gaymar Industries). The neck area for each mouse was prepared for surgery by depilating over the right common Carotid artery and right Jugular vein. An incision was made and the right Jugular vein was isolated with care as to not damage the Carotid artery and/or the Vagus nerve. A piece of 5-0 silk suture was placed under the isolated Jugular vein to allow for retraction of the vessel cranially, then a 30-guage needle was used to introduce a hole into the Jugular vein. A pressure catheter (Micro-tip catheter transducer SPR-1000, Millar Instruments, Inc.) was inserted into the opening of the Jugular vein and advanced past the right atrium into the right ventricle. The catheter was connected to pressure/volume instrument (MPVS-300, Millar Instruments, Inc.) that measured heart rate as well as both diastolic and systolic right ventricular pressures. These parameters were digitally acquired using a data acquisition system (PowerLab 4/35, ADlnstruments). LabChart Pro 7.0 software (ADlnstruments) was used to analyze right ventricular pressures. Readings were quantified from a 60 second interval of the pressure tracing (following a 2 minute period of recording to allow for pressure stabilization). The parameters analyzed were right ventricular systolic pressures (RVSP), heart rate (HR) and rate of right ventricular pressure rise (dP/dt max).
# Following completion of right ventricular pressure measurement, the catheter was removed and each animal was sacrificed. The abdomen was opened and blood was drawn from the Vena Cava for hematocrit assessment and serum collection. […]
# [2] = system: rat model of pulmonary hypertension induced by monocrotaline; assay: rat model of pulmonary hypertension induced by monocrotaline; format: in vivo, rat (Sprague Dawley)
# Method: To further evaluate the effect of anti-Activin A antibodies in pulmonary arterial hypertension, a rat model of pulmonary hypertension induced by monocrotaline was used.
# Six to seven week old Sprague Dawley rats were used. Rats were separated into treatment groups such that body weights were similar among different groups. Rats were subcutaneously administered either 40 mg/kg of monocrotaline or 5 mL/kg of saline at day 0. At 14 days post injection, saline-injected rats were orally dosed with PEG 400 (at 50:50 v/v, Affymetrix Inc., #19957) at 5 mL/kg daily for two weeks, and monocrotaline-injected rats were separated into 5 groups with a group (n=9) orally dosed with PEG 400 at 5 mL/kg daily for two weeks, another group (n=12) orally administered macintentan at 30 mg/kg daily for two weeks, and three groups that were both orally dosed with PEG 400 at 5 mL/kg daily for two weeks and subcutaneously treated with either anti-Activin A antibodies, H4H10430P (n=9), H4H10446P2 (n=11), or an isotype control antibody (n=10) at 40 mg/kg twice a week for two weeks.
# At day 27, pulmonary artery size and right ventricular function and dimensions of the rats were assessed using a high frequency ultrasound system (Vevo 2100, VisualSonics). For the assessment, rats were anesthetized (with 1.5% isoflurane at a rate of 1.0 cc/mL of medical grade air) and their temperature was monitored with a rectal temperature probe and held at approximately 37° C. with a heated platform (Vevo 2100, Visualsonics) and a warming lamp. Both brightness-mode (B-mode) and motion-mode (M-mode) imaging were used. B-mode imaging of the rat heart in cross-section was used to determine pulmonary artery cross-sectional area (PA CSA) at the level of the pulmonary valve. […] was used to determine the pulsed wave velocity time integral (VTI), which is derived from the area under the curve of representative Doppler tracings of blood flow through the pulmonary artery. Right ventricular stroke volume (RV SV) was calculated from the product of PA CSA and VTI. Right ventricular cardiac output (RV CO) was calculated from the product of SV and heart rate (HR). M-mode imaging was used to determine right ventricular free wall (RVFW) thickness during diastole and systole. […]
# Right ventricular pressure was subsequently assessed for all treatment groups. […] The catheter was connected to pressure/volume instrument (MPVS-300, Millar Instruments, Inc.) that measured heart rate as well as both diastolic and systolic right ventricular pressures. […] Readings were quantified from a 60 second interval of the pressure tracing (following a 2 minute period of recording to allow for pressure stabilization). The parameters analyzed were RV diastolic and systolic pressures, heart rate and ventricular contractile function. […]
# [3] = system: long-term rat monocrotaline in vivo model; assay: long-term rat monocrotaline model, survival; design: species or system rat (Sprague Dawley); conditions: monocrotaline 40 mg/kg SC day 0; therapy from two weeks post-monocrotaline for 5 weeks; antibodies 40 mg/kg SC 2x/wk, macitentan 30 mg/kg PO daily; n=10
# Method: To evaluate the survival benefit of anti-Activin A antibody in a pulmonary arterial hypertension model, a long-term rat monocrotaline in vivo model was used.
# Six-to-seven week old Sprague Dawley rats were used. Rats were separated into treatment groups such that body weights were similar among different groups. Rats were subcutaneously administered either 40 mg/kg of monocrotaline or 5 mL/kg of saline at day 0. At 14 days post-injection, saline-injected rats were subcutaneously treated with saline at 5 mL/kg, twice a week for 5 weeks, unless they died prematurely.
# The monocrotaline-injected rats were separated into 4 groups. One group (n=10) was orally administered macitentan at 30 mg/kg daily. A second group (n=10) was subcutaneously administered saline at 5 mL/kg twice a week. A third group (n=10) was subcutaneously treated with either an isotype control antibody, H4H6334P. A fourth group (n=10) was subcutaneously treated with the anti-Activin A antibody, H4H10446P2, at 40 mg/kg twice a week. These monocrotaline-treated rats were started on therapy at two weeks post-monocrotaline and continued for 5 weeks, unless the animal died prematurely.
# Animals were monitored twice a day for signs of morbidity or mortality. Based on literature searches, 5-8 weeks after monocrotaline injection is typically a time where morbidity and mortality are likely. […]
# [4] = monocrotaline 40 mg/kg SC day 0, antibodies 40 mg/kg SC 2x/wk, macitentan 30 mg/kg PO daily from day 14 for two weeks, ultrasound day 27
molecule,measurement,setting,value
B1,PA CSA (Mean ± SEM),[1]; B-mode ultrasound on last day,1.213 ± 0.039 mm^2
same,"Stroke Volume (Mean ± SEM), right ventricular",[1],28.55 ± 2.14 µL
same,"Stroke Volume (Mean ± SEM), right ventricular",[1]; listed as isotype control,28.55 ± 2.14 µL
same,Hemocrit (Mean ± SEM),[1]; end of study,50.5 ± 1.0
same,Right Ventricular cardiac output (Mean ± SEM),[1],13.53 ± 0.84 mL/min
same,Right Ventricular cardiac output (Mean ± SEM),[1]; listed as isotype control antibody,13.53 ± 0.84 mL/min
same,Heart rate (Mean ± SEM),[1]; ultrasound,481.7 ± 20.5 beats/min
same,PA CSA (Ave ± SEM),[2]; [4],7.192 ± 0.453%% mm^2
same,Right Ventricular cardiac output (Ave ± SEM),[2]; [4],98.9 ± 7.8 mL/min
same,"Stroke Volume (Ave ± SEM), right ventricular",[2]; [4],274.0 ± 25.9 µL
same,effect on PA CSA (in words),"[2]; monocrotaline-injected rats, FIG. 3A",showed a similar response
same,mortality (animals that died during the study),[3],80%
